{
  "source": "ChEMBL document CHEMBL1201862",
  "about": "“PubChem BioAssay data set” (2004)",
  "note": "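The compound was tested at five concentrations on cells cultured in 96-well plates, with a 48-hour exposure period. GI50 = concentration required for 50% inhibition of growth.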 Activity calls are given as the source filed them. Rule as the data show it: active = GI50 up to about 1.1 µM and inactive = higher.",
  "data": [
    {"test_system": "NCI-H322M", "assay": "inhibition of tumour cell growth, NCI panel, 48 h", "values": [
      {"compound": "C[C@H]1CC[C@@H]2[C@@H](C)[C@H]3[C@H](C[C@H]4[C@@H]5CC=C6C[C@@H](O)CC[C@]6(C)[C@H]5CC[C@]34C)N2C1", "GI50": "inactive: 79.8 µM"},
      {"compound": "O=C(c1ccccc1)C(c1ccccc1)C1(O)C(=O)Nc2c(Cl)cc(Cl)cc21", "note": "(configuration not stated)", "GI50": "inactive: 18.9 µM"},
      {"compound": "CCC(CC)C(=O)OC[n+]1cccc(-c2c(COC(=O)NC(C)C)c(COC(=O)NC(C)C)c3n2CCC3)c1", "GI50": "inactive: > 100 µM"},
      {"compound": "CC(=O)NC1C(OCc2ccccc2)OC(CO)C(O)C1OCC(=O)N[C@@H](C)C(=O)N[C@H](CCC(=O)NCCNCCNc1c2ccccc2nc2cccc([N+](=O)[O-])c12)C(N)=O", "note": "(some centres not stated)", "GI50": "inactive: 46.2 µM"},
      {"compound": "CNC(=O)c1nn[nH]c1O", "GI50": "inactive: > 100 µM"},
      {"compound": "COc1cc2nc(-c3ccc4ccccc4c3)nc(O)c2cc1OC", "GI50": "inactive: > 100 µM"},
      {"compound": "COc1cc(/C=C2\\CCC(C)C3=C2N=c2s/c(=C/c4ccc(Cl)cc4)c(=O)n2C3c2cc(OC)c(OC)c(OC)c2)cc(OC)c1OC", "note": "(configuration not stated)", "GI50": "inactive: > 100 µM"},
      {"compound": "CC12CCC3C(CCC4CC(OC(=O)Cc5ccc(N(CCCl)CCCl)cc5)CCC43C)C1CCC(=O)N2", "note": "(configuration not stated)", "GI50": "inactive: 18.3 µM"},
      {"compound": "C=CSCCC(N)C(=O)O", "note": "(configuration not stated)", "GI50": "inactive: > 100 µM"},
      {"compound": "CC1=CC=C2c3ccccc3C=CN2C(=O)C1", "GI50": "inactive: > 100 µM"},
      {"compound": "O=C(N/C(=C/c1ccc(Cl)cc1Cl)c1nc2ccccc2s1)c1ccccc1", "GI50": "inactive: 17.5 µM"},
      {"compound": "CN(C)C(=S)SN(C)C(=O)Nc1ccccc1", "GI50": "inactive: 42.8 µM"},
      {"compound": "CC(C)(C)NC(=O)N1N=C(c2ccccc2)C1c1ccccc1", "note": "(configuration not stated)", "GI50": "inactive: 62.4 µM"},
      {"compound": "COC(CN(C=O)[C@@H](c1ccc(Cl)cc1)c1cc2ccccc2o1)OC", "GI50": "inactive: 13.2 µM"},
      {"compound": "CCCCCCCCCCCC(=O)OC[C@H](C[As](=O)(O)O)OC(=O)CCCCCCCCCCC", "GI50": "inactive: 16.8 µM"},
      {"compound": "O=C(O)C1C(C(=O)O)C23CC2(C(=O)O)C2(C(=O)O)CCC3=C3CCCC312", "note": "(configuration not stated)", "GI50": "inactive: 14.3 µM"},
      {"compound": "C(/c1ccco1)=c1/nc(-c2ccccc2)n2c1nc1ccccc12", "GI50": "inactive: 1.63 µM"},
      {"compound": "CC(=O)OC1C=C(C=O)C(O)(C=O)C2(C)CCCC(C)(C)C12", "note": "(configuration not stated)", "GI50": "inactive: 5.24 µM"},
      {"compound": "N#C/C(=C/c1cccnc1)C(=O)c1ccccc1", "GI50": "inactive: > 100 µM"},
      {"compound": "CCOP(=S)(OCC)Oc1ccc2c(c1)OC(=O)C1(Cl)C2(C)C2(Cl)C(=O)Oc3cc(OP(=S)(OCC)OCC)ccc3C12C", "note": "(configuration not stated)", "GI50": "inactive: 15.8 µM"},
      {"compound": "CC1(C)CC[C@]2(C(=O)O)CC[C@]3(C)[C@H](C(=O)C=C4[C@@]5(C)C=C(C#N)C(=O)C(C)(C)[C@@H]5CC[C@]43C)[C@@H]2C1", "note": "[BARDOXOLONE]", "GI50": "active: 0.575 µM"},
      {"compound": "CC(=O)NC(Cc1c[nH]c2ccccc12)C(=O)O", "note": "(configuration not stated)", "GI50": "inactive: > 100 µM"},
      {"compound": "CCN(CC)CCNc1ccc2nnn3c4ccc(O)cc4c(=O)c1c23", "GI50": "inactive: 3.23 µM"},
      {"compound": "N/C(=N\\n1c(=S)[nH]c2ccccc2c1=O)Nn1c(=S)[nH]c2ccccc2c1=O", "GI50": "inactive: > 100 µM"},
      {"compound": "CCOC(=O)C(Cl)(NC(=O)c1c(F)c(F)c(F)c(F)c1F)C(F)(F)F", "note": "(configuration not stated)", "GI50": "inactive: > 100 µM"},
      {"compound": "CCOC(=O)C1(c2ccccc2)CCCNCC1", "note": "(configuration not stated)", "GI50": "inactive: 47.3 µM"},
      {"compound": "CN(C)CCNC(=O)c1cccc2[nH]c(-c3cccnc3)nc12", "GI50": "inactive: 22.6 µM"},
      {"compound": "COc1ccc(/N=C2/SC(=N/N=c3\\sc4ccccc4n3C)S/C2=N/c2ccc(OC)cc2)cc1", "GI50": "inactive: > 100 µM"},
      {"compound": "O=C(Nc1ccccc1C(=O)Nc1nccs1)c1ccccc1", "GI50": "inactive: 20.7 µM"},
      {"compound": "CCOC(=O)CC1=Nc2ccccc2SC1", "GI50": "inactive: 1.98 µM"},
      {"compound": "C=CCN1C(=O)C[C@H](Cc2ccccc2)NC(=O)C[C@H](Cc2ccccc2)N(CC=C)C(=O)C[C@H](Cc2ccccc2)NC(=O)C[C@@H]1Cc1ccccc1", "GI50": "inactive: 20.7 µM"},
      {"compound": "Clc1ccc2c(Cl)nc(-c3ccccc3)nc2c1", "GI50": "inactive: 39.5 µM"},
      {"compound": "CCc1nc(N)nc(N)c1-c1ccc2nn(-c3ccccc3)[n+]([O-])c2c1", "GI50": "inactive: 3.79 µM"},
      {"compound": "C=Cc1nc(C#N)c(N)o1", "GI50": "inactive: > 100 µM"},
      {"compound": "Cc1cc(C)nc(NS(=O)(=O)c2ccc(NC(=O)c3cccc4c(Nc5ccc(S(=O)(=O)N=C(N)N)cc5)c5ccccc5nc34)cc2)n1", "GI50": "inactive: 28.4 µM"},
      {"compound": "Cc1ncc([N+](=O)[O-])n1CCNC(=O)CCCCn1ccnc1[N+](=O)[O-]", "GI50": "inactive: 99.8 µM"},
      {"compound": "Cc1cc(S(=O)(=O)O)c(NC(=O)c2oc3cc(O)ccc3c(=O)c2C)cc1Cl", "GI50": "inactive: > 100 µM"},
      {"compound": "CC(C)=CCC[C@](C)(O[C@@H]1O[C@H](CO)[C@@H](O)[C@H](O)[C@H]1O)[C@H]1CC[C@]2(C)[C@@H]1[C@H](O)C[C@@H]1[C@@]3(C)CC[C@@H](O)C(C)(C)[C@@H]3[C@@H](O[C@@H]3O[C@H](CO)[C@@H](O)[C@H](O)[C@H]3O)C[C@]12C.C[C@@H]1O[C@@H](O[C@H]2[C@H](O[C@H]3C[C@]4(C)[C@H](C[C@H](O)[C@@H]5[C@@H]([C@@]6(C)CC[C@H](C(C)(C)O)O6)CC[C@]54C)[C@@]4(C)CC[C@H](O)C(C)(C)[C@H]34)O[C@H](CO)[C@@H](O)[C@@H]2O)[C@H](O)[C@H](O)[C@H]1O", "GI50": "inactive: > 100 µM"},
      {"compound": "Cc1ccc(NC(=O)C(=O)C(C(=O)c2ccc3ccccc3c2)C2OC(=O)c3ccccc32)c(C)c1", "note": "(configuration not stated)", "GI50": "inactive: 7.85 µM"},
      {"compound": "CCCC(=O)n1[nH]c(=O)n(C(C)(C)C)c1=O", "GI50": "inactive: > 100 µM"},
      {"compound": "c1cc2nnc1SCCCSc1ccc(nn1)SCCCS2", "GI50": "inactive: > 54.5 µM"},
      {"compound": "COc1ncnc2c(NC3OC(CO)C(O)C3O)ncnc12", "note": "(configuration not stated)", "GI50": "active: 0.123 µM"}
    ]}
  ]
}
